From PubChem BioAssay AID1159614 (National Center for Advancing Translational Sciences (NCATS), 2016) come the findings set out here.

In all, about 45,000 compounds went through this assay and about 65 (0.1%) were called active. The call rests on the fitted dose curve; in most records, active means well fitted activation curve with a large enough effect; inconclusive means small, poorly fitted or top-dose-only effect; inactive means no such curve, though single readings can be large or run the other way. This is one part of the list.

The experiment concerns the target Galactocerebrosidase (Homo sapiens) (UniProt P54803). Put plainly: A Novel Cell-Based Assay to Identify Small Molecules for B -Galactocerebrosidase. Further: 0% is about no effect; nearly all actives have a fitted effect of over 65% in size. Particulars: 145M-Twi-hGALC-G270D cells, HMU-beta-Gal fluorescence, 48 h; series mostly up to 57.5 µM; activation: at the top concentration. A digest of the protocol: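 qHTS, 1536-well; 145M-Twi-hGALC-G270D cells (WT line also made) in DMEM/F12 + 10% FBS; compound incubation on live cells; HMU-β-gal 0.1 mM final, pH 5.2, NaTC; carbonate stop; fluorescence increase = enhanced residual activity.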
UniProt P54803, sequence (P54803 whole entry, looked up): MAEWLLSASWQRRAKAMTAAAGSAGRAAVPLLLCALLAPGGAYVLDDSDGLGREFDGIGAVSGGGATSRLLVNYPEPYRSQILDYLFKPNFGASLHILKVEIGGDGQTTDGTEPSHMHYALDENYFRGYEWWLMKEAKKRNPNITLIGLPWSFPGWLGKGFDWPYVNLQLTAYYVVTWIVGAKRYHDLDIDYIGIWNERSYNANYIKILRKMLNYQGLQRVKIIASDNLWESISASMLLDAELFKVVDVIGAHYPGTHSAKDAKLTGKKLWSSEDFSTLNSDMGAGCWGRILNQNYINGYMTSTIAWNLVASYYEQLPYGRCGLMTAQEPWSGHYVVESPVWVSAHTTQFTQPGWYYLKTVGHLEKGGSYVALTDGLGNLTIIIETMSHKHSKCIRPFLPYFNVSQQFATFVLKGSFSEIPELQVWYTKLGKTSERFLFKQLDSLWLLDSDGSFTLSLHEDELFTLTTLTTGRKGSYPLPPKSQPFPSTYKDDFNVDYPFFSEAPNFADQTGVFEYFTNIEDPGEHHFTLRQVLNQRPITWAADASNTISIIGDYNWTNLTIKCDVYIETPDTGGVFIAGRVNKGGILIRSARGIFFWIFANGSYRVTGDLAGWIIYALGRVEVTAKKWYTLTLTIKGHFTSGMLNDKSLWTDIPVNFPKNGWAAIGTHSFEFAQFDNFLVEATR
In the case of `CCC(Sc1nc2ccccc2c(=O)n1CCc1ccc(OC)c(OC)c1)C(=O)N(CC)CC` (centres undefined), the “activation” value is inactive: -0.415%.
In the case of `CCOc1ccc(CCNS(=O)(=O)c2cc(Br)cc3c2N(C(C)=O)CC3)cc1OCC`, the “activation” value is inactive: -1.86%.
Consider `Cc1cc(C)n(-c2nc3ccccc3nc2Nc2cccc(C)c2C)n1`, for which the “activation” value is inactive: -16.5%.
Next, `CCC(=O)N(CCC(c1ccccc1)c1ccc2c(c1)OCO2)Cc1ccc(OC(C)C)cc1` (centres undefined): inactive: -31.1%; `CCOC(=O)c1c(NC(=O)c2ccc(S(=O)(=O)N(CC(C)C)CC(C)C)cc2)sc2c1CCN(C(=O)OCC)C2`: inactive: -23.4%; `COc1ccc(Cl)cc1NC(=O)c1sc2nc3n(c(=O)c2c1C)CCC3`: inactive: -21.7%.
Next, `COc1ccc(NC(=O)CSc2nnc(-c3nonc3NC(C)=O)n2-c2ccccc2)cc1`: inactive: -3.7%.
For `CCc1ccc(CN(Cc2cn[nH]c2-c2ccc(OC)cc2)C(=O)Nc2cc(Cl)ccc2OC)cc1`, the “activation” value is inactive: -9.69%.
Turning to `COC(=O)c1c(NC(=O)CCCOc2cccc(C)c2)sc2c1C(C(=O)OC)CC2` (centres undefined), the “activation” value is inactive: -8.22%.
Consider `CCN(CC)C(=O)Cn1c(=O)n(Cc2ccc(C(=O)NCCc3ccc(OC)c(OC)c3)cc2)c(=O)c2ccccc21`, for which the “activation” value is inactive: -2.91%.
With `CCOC(=O)C1=C(C)N=C2SCCC(=O)N2C1c1ccc(OCc2ccccc2)cc1` (centres undefined) the figure was inactive: -21.9%.
With `COc1ccc(S(=O)(=O)NCCc2csc(-c3ccc(F)cc3)n2)cc1F`, the “activation” value is inactive: -12.8%.
Regarding `CCCCN(CCCNC(=O)c1cc(Nc2ccc(OC)c(OC)c2)nc2ccccc12)Cc1ccccc1`, the “activation” value is inactive: -7.98%.
With `Cc1ccc(-n2ncc(C(=O)NCc3ccco3)c2C2CCN(C(=O)OC(C)(C)C)CC2)c(C)c1` the figure was inactive: -14.2%.
For `CC(=O)c1ccc(N2C(=O)N(CC(=O)c3ccc(F)cc3)c3ccccc3S2(=O)=O)cc1`, the “activation” value is inactive: 5.9%.
On to `Cc1ccc(-n2ncc3c(NC4CCCCCC4)ncnc32)cc1Cl`, for which the “activation” value was inactive: -19.1%.
For the compound `COc1ccc(NC(=O)CSC2=Nc3ccccc3C3=NC(CCC(=O)NC4CCCCC4)C(=O)N23)cc1` (centres undefined), the “activation” value was inactive: -10.9%.
Consider `CCCS(=O)(=O)N1CC(=O)N(c2ccc(Cl)cc2C)C(C)(C(=O)NC2CCCC2)C1` (centres undefined), for which the “activation” value was inactive: 7.92%.
As to `COc1cc2nc(NC(=O)c3ccc(S(=O)(=O)N4CCOCC4)cc3)sc2cc1OC`, the “activation” value was inactive: -9.12%.
Regarding `O=C(CSCc1ccccc1Cl)N1CCN(c2ccc(Cl)cc2)CC1`, the “activation” value was inactive: -11.8%.
Take `COc1c(C)cccc1C(=O)Nc1cccc2ccc(C)nc12`: the “activation” value was inactive: -4.1%.
With `CC(=O)c1cccc(NC(=O)C2CCN(S(=O)(=O)c3ccc4c(c3)oc(=O)n4C)CC2)c1`, the “activation” value is inactive: -15.4%.
`N[C@@H](CSCCCO)C(=O)O`: the “activation” value is inactive: -11.8% [at 23.8 µM].
For the compound `CCOC(=O)c1cccc(NC(=O)CCn2c(-c3ccc(F)cc3)cc(C(=O)OCC)c2C)c1`, the “activation” value is inactive: -11.9%.
With `Cc1cccc(NC(=O)N2CC(=O)Nc3sc4c(c3C2c2ccccc2)CCCC4)c1C` (centres undefined) the figure was inactive: -22%.
In the case of `Cc1ccc(C(=O)c2cn(CC(=O)Nc3ccc(C)cc3Cl)c3nc(C)ccc3c2=O)cc1`, the “activation” value is inactive: -11.8%.
Turning to `Cc1ccccc1C1CC(=O)Nc2ccc3ccccc3c21` (centres undefined), the “activation” value is inactive: -2.12%.
Next, `CCOC(=O)C1CCN(C(=O)c2ccc(-n3ccc4ccccc43)s2)CC1`: inactive: -21.9%.
Regarding `COc1ccc(Cn2ccn(Cc3cccc(OC)c3)c(=O)c2=O)cc1`, the “activation” value is inactive: -5.5%.
For the compound `Cc1cc(C)cc(-n2c(-c3ccccc3)c(C)n3c4c(=O)n(C)c(=O)n(C)c4nc23)c1`, the “activation” value is inactive: -10.5%.
Turning to `Cc1cn2c(=O)cc(COC(=O)c3ccc(NC(=O)COc4ccccc4F)cc3)nc2s1`, the “activation” value is inactive: -7.01%.
In the case of `CCOc1ccccc1OCCCn1c(-c2ccc(Cl)cc2)nc2ccccc2c1=O`, the “activation” value was inactive: -11.4%.
In the case of `Cc1ccc(Cl)cc1N1CCN(C(=O)c2ccc3c(c2)N(Cc2ccc(F)cc2)CCS3)CC1`, the “activation” value is inactive: -15.4%.
Regarding `CCOc1cc(CNC(=O)c2ccc3c(c2)NC(=O)C2CCCCN32)cc(OCC)c1OCC` (centres undefined), the “activation” value is inactive: -23.5%.
For `CCOC(=O)c1[nH]c(C)c(CCC(=O)Nc2cc(C)ccc2OC)c1C`, the “activation” value was inactive: -10.7%.
With `COc1cc(C(=O)NCC(c2cccs2)S(=O)(=O)c2cccs2)cc(OC)c1OC` (centres undefined), the “activation” value is inactive: -9.17%.
For the compound `CCc1ccccc1NC(=O)c1cnc(N2CCCCC2)c2ccccc12`, the “activation” value was inactive: -6.3%.
Next, `Cc1cc(=O)n(CC(=O)N2CCN(c3ccccc3F)CC2)c2c1c(C)nn2C`: inactive: -17.4%.
For the compound `CCOc1ccc(CCNC(=O)Cn2nc(CC)n3c(cc4ccccc43)c2=O)cc1`, the “activation” value is inactive: -10.6%.
`O=C(CCn1c(=O)c2cccn2c2cccnc21)NCc1ccc(F)cc1`: the “activation” value is inactive: -16.3%.
As for `Fc1ccc(-c2noc3ncnc(NCc4ccc(Cl)cc4)c23)cc1`, the “activation” value is inactive: 3.59%.
With `CN(Cc1ccccc1)C(=O)c1ccc2c(c1)N(Cc1ccccc1Cl)C(=O)c1ccccc1S2` the figure was inactive: -5.42%; with `Cc1ccccc1CN1CCC(CNC(=O)c2c(C)oc3ncnc(N4CCCCC4)c23)CC1`, inactive: -5.88%.
`CCN1C(=O)c2ccccc2S(=O)c2ccc(C(=O)N3CCN(c4cc(Cl)ccc4C)CC3)cc21` (centres undefined): the “activation” value was inactive: -7.49%.
For the compound `CCC(Sc1nc(-c2ccccc2F)nc2c1Cc1c(CO)cnc(C)c1O2)C(=O)Nc1cc(C)ccc1C` (centres undefined), the “activation” value was inactive: -11.6%.
In the case of `CCOc1ccc(CCNC(=O)C2=C(C)C(=O)OC23CCCCC3)cc1`, the “activation” value was inactive: -14.5%.
As for `COc1ccc(-c2cc(C(C)=O)c(C)n2CCC(=O)Nc2cc(Cl)ccc2C)cc1`, the “activation” value is inactive: 12.3%.
Turning to `COc1ccc(C(=O)NC2(C(F)(F)F)C(=O)Nc3c2c(=O)[nH]c(=O)n3CCc2ccc(OC)c(OC)c2)cc1` (centres undefined), the “activation” value was inactive: -19.7%.
Turning to `CCOC(=O)C1CCN(S(=O)(=O)c2ccc3c(c2)N(C)C(=O)CC(=O)N3C)CC1`, the “activation” value was inactive: -9.24%.
Take `Nc1ccc([N+](=O)[O-])c(C(F)(F)F)c1`: the “activation” value was inactive: -8.96%.
Next, `COc1cc(C2CC(=O)Oc3c2c(=O)n(C)c2ccccc32)ccc1O` (centres undefined): inactive: -18.4%.
Next, `Cc1cc(C)c2oc(-c3cccc(NC(=O)COc4ccc([N+](=O)[O-])cc4)c3)nc2c1`: inactive: -28%.
Regarding `Cc1ccc(NC(=O)Cn2c(=O)n(CC3CCCO3)c(=O)c3ccccc32)cc1` (centres undefined), the “activation” value is inactive: 12.7%.
`Cc1ccc(Cl)cc1N1CCN(C(=O)c2ccc(CS(=O)(=O)c3ccccc3C)o2)CC1`: the “activation” value was inactive: -14.8%.
Regarding `O=C(COc1ccccc1)Nc1ccc2nc(SCCOc3ccccc3)sc2c1`, the “activation” value was inactive: -18.7%.
For `CCOC(=O)c1c(C)[nH]c(C)c1S(=O)(=O)N(C)CC(=O)Nc1ccc(C)cc1C`, the “activation” value was inactive: -9.46%.
Take `CCCn1cnc2c1c(=O)n(CCCCC(C)=O)c(=O)n2C`: the “activation” value was inactive: -14.8%.
As for `Cc1nnc(N2CCCC(C(=O)Nc3cc(F)ccc3F)C2)c2nn(-c3ccccc3)c(C)c12` (centres undefined), the “activation” value was inactive: -7.44%.
With `CCCN1CCN(c2ncnc3sc(C(=O)Nc4ccc(OC(F)(F)F)cc4)c(C)c23)CC1` the figure was inactive: -21.9%.
